Out of some 43,000 compounds screened, about 200 (0.47%) were called active. About 12% were inconclusive and are not listed. Calls come from the whole dose curve; as a rule, active = well fitted cell-killing curve with a large enough effect; inconclusive = small, poorly fitted or top-dose-only effect, or effect the other way; inactive = flat fitted curve, though single readings scatter. The list shows a part of the results.
Test: Cell viability qHTS assay in S16 Pmp22-F2sN cells; note: nearly all actives have a fitted effect of over 65% in size
Details: S16 Pmp22-F2sN Schwann cells (luciferase reporters placed in the Pmp22 gene) viability, CellTiter-Glo, 24 h; series mostly up to 57.5 µM; activity change, negative = cytotoxicity: at the top concentration
Outline: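 Seed 500-1,000 S16 Pmp22-F2sN cells per well in phenol-red-free DMEM with 10% heat-inactivated FBS; pin-add 23 nL compound; incubate 24 h at 37C; add CellTiter-Glo, wait 15 min protected from light; read luminescence.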
% is set by controls: 0 for no effect and ±100 for the full control effect.

| Structure (SMILES) | activity change, negative = cytotoxicity |
| --- | --- |
| Cc1ccc(-c2cn3cccnc3n2)cc1NC(=O)C(C)(C)Oc1ccc(Cl)cc1 | inactive: -12.1% |
| C=C(C)CSc1nc2sc3c(c2c(=O)n1Cc1ccccc1)CC(C)(CC)OC3 (stereo not drawn) | inactive: 0.838% |
| Cc1c(C(=O)Nc2ccccc2Br)oc2ccc(S(=O)(=O)N3CCCCCC3)cc12 | inactive: -22.2% |
| Cc1ccc2oc3c(c(=O)c2c1)C(c1ccc(O)cc1)N(CCCN(C)C)C3=O (stereo not drawn) | inactive: 18.2% |
| Cc1ccc(-n2c(=O)c3cccnc3n2CC(=O)NCc2ccc(Cl)cc2)cc1 | inactive: 4.96% |
| COC(=O)c1ccc([C@@H]2Nc3c(OC)ccc(C)c3[C@@H]3C=CC[C@@H]32)cc1 | inactive: -5.44% |
| Nc1c(C(=O)Nc2ccc(F)cc2)sc2nc(-c3cccs3)cc(C(F)(F)F)c12 | inactive: -0.97% |
| Cc1cc(F)ccc1NC(=O)C(c1ccccc1)N1Cc2ccccc2C1=O (stereo not drawn) | inactive: -19.1% |
| COc1ccc(C(=O)Nc2cccc(C(=O)OCc3cc(=O)n4nc(C5CC5)sc4n3)c2)cc1 | inactive: -28.4% |
| Cc1cccc(Nc2ncnc3onc(-c4ccc(Cl)cc4)c23)c1C | inactive: -2.25% |
| O=C(CCS(=O)(=O)c1cc2c(cc1Cl)NC(=O)CO2)NCc1ccc(Cl)cc1 | inactive: 14% |
| CC1N=C2c3ccccc3N=C(SCC(=O)NCCc3ccc(Cl)cc3)N2C1=O (stereo not drawn) | inactive: 3.03% |
| CCn1c2ccccc2c2cc(CN3CCN(Cc4ccc(Br)cc4)CC3)ccc21 | inactive: -15.7% |
| COc1cccc(Cc2nc3ccccc3nc2SCC(=O)Nc2cccc(C)c2)c1 | inactive: 1.32% |
| Cc1ccc(Cn2cc(S(=O)(=O)c3cccc(C)c3)c(=O)c3cc(F)c(N4CCOCC4)cc32)cc1 | inactive: -9.1% |
| O=C(Nc1cc(-c2ccccc2)sc1C(=O)O)c1cccc(F)c1 | inactive: -4.82% |
| COc1ccc(CNC(=O)c2sc3nc4n(c(=O)c3c2C)CCCC4)cc1 | inactive: 3.01% |
| O=C(Cn1c(=O)n(Cc2nc(-c3ccccc3)no2)c(=O)c2cc3c(cc21)OCO3)Nc1ccccc1 | inactive: -10.6% |
| CCC(C)n1c(=O)c2sccc2n2c(CCCC(=O)N3CCN(c4ccccc4)CC3)nnc12 (stereo not drawn) | inactive: 9.93% |
| COC(=O)c1cc(Nc2nc3ccccc3nc2NS(=O)(=O)c2ccc(C)cc2)ccc1Cl | inactive: -8.73% |
| COc1ccc2c(c1)CCc1c(C(=O)Nc3cc(OC)c(Cl)cc3OC)noc1-2 | inactive: 2.44% |
| O=C(Cc1ccccc1)Nc1sc2c(c1C(=O)Nc1ccccc1Cl)CCCCC2 | inactive: 10.6% |
| CCOC(=O)C1CCCN(S(=O)(=O)c2cc(-c3cc(C)no3)ccc2OC)C1 (stereo not drawn) | inactive: -10.4% |
| CC(C)CC(=O)Nc1ccc2nc(SCC(=O)N3CCc4ccccc43)sc2c1 | inactive: 12.7% |
| Cc1ccc(CN(C(=O)c2ccc(C(C)(C)C)cc2)c2ccccn2)o1 | inactive: 11.4% |

| Structure (SMILES) | activity change, negative = cytotoxicity |
| --- | --- |
| COc1ccccc1NC(=O)CSc1ncc2c(n1)-c1ccccc1N(Cc1ccccc1C)S2(=O)=O | inactive: -4.82% |
| CCn1ccc2cc(S(=O)(=O)N3CCCN(C(=O)Nc4ccccc4F)CC3)ccc21 | inactive: 15.1% |
| COc1cccc(Cn2c(SCC(=O)N3CCN(c4ccc(F)cc4)CC3)nc3ccccc32)c1 | inactive: 8.09% |
| O=C(CSc1nnc(-c2ccc3c(c2)OCO3)o1)Oc1ccccc1 | inactive: 16.3% |
| O=C(COC(=O)c1cc(-c2cccs2)nc2ccccc12)c1ccc(F)cc1 | inactive: 0.22% |
| CCc1cccc2sc(N3CCN(C(=O)C4CC4)CC3)nc12 | inactive: 2.18% |
| Cc1ccc2cccc(NC(=O)c3cccc4ccccc34)c2n1 | inactive: -12.8% |
| CCCCNC(=O)CSc1nc2cc3c(cc2c(=O)n1CCCC(=O)NCc1ccc2c(c1)OCO2)OCO3 | inactive: -13.4% |
| CC(C)(C)OC(=O)N1CCC(c2c(C(=O)N3CCc4ccccc4C3)cnn2-c2ccc(Cl)cc2)CC1 | inactive: -24.8% |
| CCOc1ccccc1C(=O)N(Cc1ccc(N(C)C)cc1)CC1CCCO1 (stereo not drawn) | inactive: 12.6% |
| CCS(=O)(=O)Nc1cc(-c2cn3ccc(C)cc3n2)ccc1C | inactive: -1.45% |
| Cc1ccc(-c2noc(CN(C3CCCCC3)S(=O)(=O)c3ccc(Cl)cc3)n2)cc1 | inactive: 8.71% |
| Cc1ccc(CNc2ncnc3c2c(-c2ccccc2)cn3-c2cccc(Cl)c2)cc1 | inactive: 22.1% |
| COc1ccc(-c2nc3n(n2)C(c2ccccc2F)C(C(=O)Nc2cccnc2)=C(C)N3)cc1OC (stereo not drawn) | inactive: -0.383% |
| Cc1cccc(-n2c(=O)c3c(c4cc(C)ccc4n3C)n(CC(=O)Nc3ccccc3C(F)(F)F)c2=O)c1 | inactive: 10.1% |
| COCCCNC(=O)c1sc2ncccc2c1-n1cccc1 | inactive: -2.6% |
| COc1ccc(C2CC(=O)c3c([nH]c(C(=O)OC4CCC(C)CC4)c3C)C2)cc1OC (stereo not drawn) | inactive: -1.18% |
| O=C(Nc1ccc(F)c(Cl)c1)N1CCN2CCCCC2C1 (stereo not drawn) | inactive: -2.34% |
| CCCCN(C(=O)c1cccc(S(=O)(=O)N2CCCCC2)c1)C1CCS(=O)(=O)C1 (stereo not drawn) | inactive: -9% |
| COc1ccc(-c2nc(CSCC(=O)NCCc3ccc(C)cc3)c(C)o2)cc1OC | inactive: 0.0735% |
| COC(=O)c1cc2occc2n1CC(=O)Nc1cccc(SC)c1 | inactive: 1.89% |
| CN(C(=O)CSc1nc2ccccc2n1CC(=O)NCc1ccc(F)cc1)c1ccc(F)cc1 | inactive: -12% |
| CCOC(=O)Cn1cc2c(c1-c1ccc(Cl)cc1)c(=O)n(C)c(=O)n2C | inactive: -0.0933% |
| CCc1noc2nc(C)n(CC(=O)O)c(=O)c12 | inactive: 13.3% |
| Cc1c(C(=O)NCc2ccc(Cl)cc2)sc2nc3n(c(=O)c12)CCCC3 | inactive: -25.8% |

| Structure (SMILES) | activity change, negative = cytotoxicity |
| --- | --- |
| CCOc1ccc(CNC(=O)c2ccc(NC(=O)c3nsc4ccccc34)cc2)cc1 | inactive: -4.76% |
| CCCCN(Cc1ccccc1)S(=O)(=O)c1ccc2c(c1)CC(C)N2C(=O)CC (stereo not drawn) | inactive: -25.2% |
| COc1ccccc1Cc1nc2ccccc2nc1SCC(=O)NCCc1ccccc1 | inactive: 23.8% |
| CCN(CC)CCCNC(=O)c1c(C)oc2ncnc(N3CCOCC3)c12 | inactive: -4.56% |
| CCC(=O)Nc1sc2c(c1C(=O)Nc1ccccc1C)CCC(C)C2 (stereo not drawn) | inactive: -21.7% |
| Cn1c(=O)c2sccc2n2c(CCC(=O)N3CCN(c4ccccc4)CC3)nnc12 | inactive: 1.73% |
| Cc1ccc(-n2nc3ccc(NC(=O)c4cc5ccccc5o4)cc3n2)cc1 | inactive: 10.8% |
| COC(=O)c1ccccc1NC(=O)c1noc2c1CSc1ccccc1-2 | inactive: 2.36% |
| COc1ccc2nc(NC(=O)c3ccc(S(=O)(=O)N4CCC(C)CC4)cc3)sc2c1 | inactive: 1.72% |
| CCOC(=O)c1cccc(NC(=O)NCCc2c(C)nn(C)c2C)c1 | inactive: -0.0237% |
| CCC(Cc1ccccc1)NC(=O)c1oc(=O)c2ccccc2c1-c1ccccc1 (stereo not drawn) | inactive: 1.32% |
| CC(C)C(=O)Nc1ccc2nc(SCC(=O)N3CCOCC3)sc2c1 | inactive: 2.76% |
| Cc1ccc(C)n1-c1nnc(N2CCC(C(=O)NCc3ccc(F)cc3)CC2)s1 | inactive: 0.737% |
| CCOC(=O)c1c(N)n(-c2ccccc2CC)c2nc3ccccc3nc12 | inactive: -14.3% |
| CCOc1ccc(CNC(=O)CCC(=O)N2CC3CCCN3c3ccccc32)cc1 (stereo not drawn) | inactive: 3.38% |
| COc1ccc(Cl)cc1NC(=O)c1cc(S(=O)(=O)N2CCC(C)CC2)cn1C | inactive: -10.7% |
| CCN1CCN(C(c2cccc(F)c2)c2c(O)cc(C)n(CCOC)c2=O)CC1 (stereo not drawn) | inactive: 4.05% |
| CCc1nc2cccnc2n1-c1ccc(CC(=O)Nc2ccccc2Cl)cc1 | inactive: -15.1% |
| Cc1cccc(NC(=O)CSc2nc3c(oc4ccccc43)c(=O)n2Cc2ccco2)c1 | inactive: 0.472% |
| O=S(=O)(c1ccc(Br)cc1)c1nnn2c1nc(NC1CCCCCC1)c1sccc12 | inactive: 6.43% |
| Cc1ccc(N2CC(c3nnc(NC(=O)c4ccco4)s3)CC2=O)cc1Cl (stereo not drawn) | inactive: -9.94% |
| COc1cc(Cl)c(C)cc1NC(=O)CCn1c(=O)c2cccn2c2cccnc21 | inactive: 18.3% |
| COc1cccc(CNC(=O)C2CCN(S(=O)(=O)c3ccc4c(ccn4C)c3)CC2)c1 | inactive: -5.8% |
| CSc1ccc(C2c3[nH]c4ccccc4c3CCN2C(=O)CCc2ccccc2)cc1 (stereo not drawn) | inactive: 0.108% |
| Cc1cccc(CCNC(=O)CCS(=O)(=O)c2cc3c(cc2Cl)NC(=O)CO3)c1 | inactive: 0.461% |

| Structure (SMILES) | activity change, negative = cytotoxicity |
| --- | --- |
| COc1ccc(C)cc1Nc1nc2ccccc2c2nnc(C)n12 | inactive: 10.5% |
| CC(C)c1nc2ccc(C(=O)NCc3ccc(N(C)C)cc3)cc2o1 | inactive: 13.2% |
| Cc1ccc(-n2nc3c(=O)n(CCCC(=O)NCCc4ccccc4)nc(C)c3c2C)cc1 | inactive: 5.84% |
| Cc1ccc(C(=O)Nc2ccc(Br)cc2)cc1S(=O)(=O)N1CCOCC1 | inactive: -9.31% |
| CC(=O)c1cccc(NC(=O)Cn2c(=O)c(CNc3ccc(C)cc3)cc3cc4c(cc32)OCCO4)c1 | inactive: 3.07% |
| COc1ccccc1C(=O)Nc1ccc2nc(N3CCC(C)CC3)cc(C)c2c1 | inactive: -3.79% |
| CCOc1ccccc1NS(=O)(=O)c1c(C)nc2sccn2c1=O | inactive: 3.76% |
| Cc1ccc(-c2sc(C(=O)Nc3ccc(Br)cc3)cc2CC(=O)O)cc1 | inactive: 1.93% |
| CCn1c(=O)c2cc(C(=O)N(CCCOC(C)C)Cc3ccco3)sc2c2ccccc21 | inactive: -3.31% |
| Cc1ccc(CNC(=O)C(=O)NCC(c2cccs2)S(=O)(=O)c2ccc(C)cc2)cc1 (stereo not drawn) | inactive: 6.26% |
| COC(=O)c1sccc1S(=O)(=O)N(CC(=O)NCc1ccccc1)c1ccccc1 | inactive: 25.5% |
| COc1ccc(NC(=O)CSc2nc3c([nH]c4ccccc43)c(=O)n2C)cc1 | inactive: 13% |
| Nc1c(C(=O)Nc2ccccc2Cl)c2ccccn2c1C(=O)c1ccc(Cl)cc1 | inactive: -10.1% |
| Cc1ccc(CNC(=O)CSc2ncc(S(=O)(=O)c3ccc(Br)cc3)c(=O)[nH]2)cc1 | inactive: 19.1% |
| COc1ccc(NS(=O)(=O)c2ccc3c(c2)C(C(C)C)C(=O)N3)cc1 (stereo not drawn) | inactive: -21.3% |
| CCc1nn(CC(=O)NCCC(C)C)c(=O)c2cc3occc3n12 | inactive: 13.6% |
| CCn1c(C)c(C2N3CC4(C)CN2CC(CC)(C3)C4=O)c2ccccc21 (stereo not drawn) | inactive: 9.37% |
| Cc1nn(C(=O)c2ccccc2F)c(C)c1S(=O)(=O)N1CCOCC1 | inactive: -6.61% |
| COc1ccc(Nc2ncnc3c2cnn3-c2ccc(C)cc2C)cc1 | inactive: 7.48% |
| COc1cccc(CC(=O)Nc2ccc3nc(N4CCC(C)CC4)cc(C)c3c2)c1 | inactive: 2.42% |
| Cc1c(C(=O)N2CCC(C)CC2)c(S(=O)(=O)NCc2ccccc2)c(C)n1C | inactive: 5.22% |
| CCCN1CCN(CCCNC(=O)c2ccc3c(c2)sc2nc(-c4ccc(OC)cc4)cn23)CC1 | inactive: 18.4% |
| CCOC(=O)C1CCN(C(=O)Cn2nc(C)n3c(cc4sccc43)c2=O)CC1 | inactive: -0.0148% |

Reference: PubChem BioAssay AID1508642 (National Center for Advancing Translational Sciences (NCATS), 2021)
